Measurements as given in the supplement of paper PMC4967469.

Tests used:
Assay in all cases: Viability of human cancer cell lines after 72 h of drug (GDSC screen)
[1] = compound: Cn1cnc2c(F)c(Nc3ccc(Br)cc3Cl)c(C(=O)NOCCO)cc21 [AZD6244]; conditions: top dose 4 µM; screen: GDSC drug entry 1498; top dose inferred
Experimental: (§1)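 Human cancer cell lines in 384-well plates, medium with 10% serum, drug for 72 h over a 256-fold dose range (nine 2-fold or five 4-fold steps up to the top dose). Adherent lines were fixed and stained with the nucleic acid dye Syto60, suspension lines read with resazurin; signal relative to control wells, capped at 0 and 100%. One two-parameter sigmoid per drug and line, fitted in a mixed model over all curves with the slope shared within a line.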

[2] = compound: N#CC(c1ccnc(NCCc2cccnc2)n1)c1nc2ccccc2s1 [AS601245]; conditions: top dose 8 µM; top dose inferred
Experimental: as §1

[3] = compound: NC(=O)C1CCCc2c1[nH]c1ccc(Cl)cc21 [EX-527]; conditions: top dose 20 µM
Experimental: as §1

[4] = compound: Nc1ccc(C(=O)Nc2cccc(-c3nc(N4CCOCC4)c4oc5ncccc5c4n3)c2)cn1 [YM201636]; conditions: top dose 5.12 µM; top dose inferred
Experimental: as §1

Row | Cell Line | AUC [1] | IC50 [1] [µM] | AUC [2] | IC50 [2] [µM] | AUC [3] | IC50 [3] [µM] | AUC [4] | IC50 [4] [µM]
1 | COR-L105 (lung adenocarcinoma, adherent) | 0.788 | 2.19 | 0.694 | 1.99 | 0.982 | > 20 | 0.796 | 3.03
2 | CP50-MEL-B (melanoma, adherent) | 0.295 | 0.0668 | 0.845 | 5.66 | 0.988 | > 20 | 0.829 | 3.13
3 | CS1 (bone, adherent) | 0.9 | > 4 | 0.823 | 5.47 | 0.974 | > 20 | 0.848 | 4.49
4 | Ca9-22 (head and neck, adherent) | 0.796 | 1.71 | 0.857 | 5.77 | 0.988 | > 20 | 0.921 | > 5.12
5 | Ca-Ski (cervix, adherent) | 0.87 | > 4 | 0.906 | > 8 | 0.98 | > 20 | 0.762 | 2.04
6 | CaR-1 (large intestine, adherent) | 0.911 | > 4 | 0.913 | > 8 | 0.97 | > 20 | 0.941 | > 5.12
7 | Calu-6 (lung adenocarcinoma, adherent) | 0.719 | 1.15 | 0.798 | 4.47 | 0.967 | > 20 | 0.928 | > 5.12
8 | Capan-2 (pancreas, adherent) | 0.638 | 0.655 | 0.819 | 5.85 | 0.985 | > 20 | 0.97 | > 5.12
9 | ChaGo-K-1 (non-small cell lung carcinoma, adherent) | 0.972 | > 4 | 0.805 | 4.82 | 0.985 | > 20 | 0.888 | > 5.12
10 | DAN-G (pancreas, adherent) | 0.879 | 3.23 | 0.992 | > 8 | 0.985 | > 20 | 0.954 | > 5.12
11 | DBTRG-05MG (glioma, adherent) | 0.763 | 1.68 | 0.886 | > 8 | 0.973 | > 20 | 0.945 | > 5.12
12 | DK-MG (glioma, adherent) | 0.766 | 2.24 | 0.965 | > 8 | 0.971 | > 20 | 0.884 | > 5.12
13 | DMS-53 (small cell lung carcinoma, adherent) | 0.987 | > 4 | 0.909 | > 8 | 0.988 | > 20 | 0.988 | > 5.12
14 | DMS-273 (small cell lung carcinoma, adherent) | 0.983 | > 4 | 0.672 | 1.56 | 0.983 | > 20 | 0.761 | 1.91
15 | DOK (head and neck, adherent) | 0.331 | 0.0662 | 0.876 | > 8 | 0.976 | > 20 | 0.975 | > 5.12
16 | DU-145 (prostate, adherent) | 0.737 | 1.3 | 0.823 | 5.45 | 0.984 | > 20 | 0.953 | > 5.12
17 | Daoy (medulloblastoma, adherent) | 0.895 | > 4 | 0.806 | 3.63 | 0.985 | > 20 | 0.947 | > 5.12
18 | Detroit562 (head and neck, adherent) | 0.915 | > 4 | 0.817 | 4.25 | 0.988 | > 20 | 0.957 | > 5.12
19 | DoTc2-4510 (cervix, adherent) | 0.937 | > 4 | 0.729 | 2.15 | 0.988 | > 20 | 0.945 | > 5.12
20 | EBC-1 (lung squamous cell carcinoma, adherent) | 0.532 | 0.31 | 0.829 | 5.89 | 0.981 | > 20 | 0.913 | > 5.12
21 | ECC10 (stomach, suspension) | 0.908 | > 4 | 0.914 | > 8 | 0.985 | > 20 | 0.966 | > 5.12

Row | Cell Line | AUC [1] | IC50 [1] [µM] | AUC [2] | IC50 [2] [µM] | AUC [3] | IC50 [3] [µM] | AUC [4] | IC50 [4] [µM]
22 | EFM-19 (breast, adherent) | 0.96 | > 4 | 0.83 | > 8 | 0.977 | > 20 | 0.764 | 2.86
23 | EFM-192A (breast, adherent) | 0.982 | > 4 | 0.525 | 0.591 | 0.986 | > 20 | 0.81 | 3.07
24 | EFO-21 (ovary, adherent) | 0.905 | > 4 | 0.79 | 5.42 | 0.97 | > 20 | 0.884 | > 5.12
25 | EFO-27 (ovary, adherent) | 0.873 | > 4 | 0.824 | 6.41 | 0.98 | > 20 | 0.943 | > 5.12
26 | EGI-1 (biliary tract, adherent) | 0.637 | 0.671 | 0.935 | > 8 | 0.976 | > 20 | 0.943 | > 5.12
27 | EN (endometrium, adherent) | 0.976 | > 4 | 0.905 | > 8 | 0.976 | > 20 | 0.854 | > 5.12
28 | EPLC-272H (lung squamous cell carcinoma, adherent) | 0.853 | 3.77 | 0.869 | > 8 | 0.965 | > 20 | 0.904 | > 5.12
29 | ESS-1 (endometrium, adherent) | 0.931 | > 4 | 0.842 | 4.79 | 0.99 | > 20 | 0.988 | > 5.12
30 | EW-7 (Ewing sarcoma, semi-adherent) | 0.98 | > 4 | 0.867 | 5.76 | 0.99 | > 20 | 0.621 | 0.658
31 | FTC-133 (thyroid, adherent) | 0.945 | > 4 | 0.961 | > 8 | 0.97 | > 20 | 0.986 | > 5.12
32 | FU97 (stomach, adherent) | 0.826 | 2.52 | 0.847 | 6.15 | 0.982 | > 20 | 0.842 | 3.76
33 | FU-OV-1 (ovary, adherent) | 0.893 | > 4 | 0.818 | 6.48 | 0.981 | > 20 | 0.857 | > 5.12
34 | G-292 Clone A141B1 (osteosarcoma, adherent) | 0.933 | > 4 | 0.746 | 4.01 | 0.974 | > 20 | 0.931 | > 5.12
35 | G-361 (melanoma, adherent) | 0.514 | 0.273 | 0.86 | 6.29 | 0.984 | > 20 | 0.928 | > 5.12
36 | G-401 (kidney, adherent) | 0.937 | > 4 | 0.768 | 3.28 | 0.965 | > 20 | 0.909 | > 5.12
37 | G-402 (soft tissue, adherent) | 0.908 | > 4 | 0.822 | 6.84 | 0.974 | > 20 | 0.828 | 4.72
38 | G-MEL (melanoma, adherent) | 0.169 | 0.0251 | 0.894 | > 8 | 0.982 | > 20 | 0.952 | > 5.12
39 | GAK (melanoma, adherent) | 0.629 | 0.557 | 0.872 | 6.98 | 0.983 | > 20 | 0.891 | > 5.12
40 | GAMG (glioma, adherent) | 0.92 | > 4 | 0.822 | 4.98 | 0.985 | > 20 | 0.888 | > 5.12
41 | GCT (soft tissue, adherent) | 0.964 | > 4 | 0.77 | 2.83 | 0.987 | > 20 | 0.989 | > 5.12
42 | GMS-10 (glioma, adherent) | 0.87 | 3.68 | 0.909 | > 8 | 0.978 | > 20 | 0.984 | > 5.12

Row | Cell Line | AUC [1] | IC50 [1] [µM] | AUC [2] | IC50 [2] [µM] | AUC [3] | IC50 [3] [µM] | AUC [4] | IC50 [4] [µM]
43 | GP5d (large intestine, adherent) | 0.819 | 1.97 | 0.827 | 4.19 | 0.991 | > 20 | 0.847 | 3.19
44 | H4 (glioma, adherent) | 0.957 | > 4 | 0.871 | 7.38 | 0.981 | > 20 | 0.972 | > 5.12
45 | H513 (mesothelioma, semi-adherent) | 0.914 | > 4 | 0.985 | > 8 | 0.986 | > 20 | 0.808 | 3.36
46 | H2369 (mesothelioma, adherent) | 0.933 | > 4 | 0.868 | 7.72 | 0.981 | > 20 | 0.929 | > 5.12
47 | H2373 (mesothelioma, adherent) | 0.894 | > 4 | 0.923 | > 8 | 0.982 | > 20 | 0.945 | > 5.12
48 | H2461 (mesothelioma, adherent) | 0.844 | 4 | 0.877 | > 8 | 0.979 | > 20 | 0.94 | > 5.12
49 | H2591 (mesothelioma, adherent) | 0.877 | > 4 | 0.858 | > 8 | 0.982 | > 20 | 0.898 | > 5.12
50 | H2595 (mesothelioma, adherent) | 0.906 | > 4 | 0.887 | > 8 | 0.976 | > 20 | 0.954 | > 5.12
51 | H2722 (mesothelioma, adherent) | 0.955 | > 4 | 0.764 | 3.45 | 0.978 | > 20 | 0.966 | > 5.12
52 | H2731 (mesothelioma, adherent) | 0.875 | > 4 | 0.95 | > 8 | 0.949 | > 20 | 0.793 | 2.72
53 | H2795 (mesothelioma, adherent) | 0.772 | 1.52 | 0.945 | > 8 | 0.987 | > 20 | 0.823 | 2.97
54 | H2803 (mesothelioma, adherent) | 0.82 | 2.79 | 0.791 | 4.26 | 0.985 | > 20 | 0.978 | > 5.12
55 | H2818 (mesothelioma, adherent) | 0.908 | > 4 | 0.989 | > 8 | 0.983 | > 20 | 0.989 | > 5.12
56 | H2869 (mesothelioma, adherent) | 0.905 | > 4 | 0.743 | 2.99 | 0.984 | > 20 | 0.85 | > 5.12
57 | H3118 (head and neck, adherent) | 0.207 | 0.031 | 0.747 | 2.77 | 0.983 | > 20 | 0.86 | 4.95
58 | H3255 (lung adenocarcinoma, adherent) | 0.907 | > 4 | 0.82 | 5.78 | 0.983 | > 20 | 0.916 | > 5.12
59 | HARA (lung squamous cell carcinoma, adherent) | 0.963 | > 4 | 0.919 | > 8 | 0.98 | > 20 | 0.9 | > 5.12
60 | HCC38 (breast, adherent) | 0.984 | > 4 | 0.777 | 3.49 | 0.974 | > 20 | 0.885 | > 5.12
61 | HCC70 (breast, adherent) | 0.85 | 2.95 | 0.844 | 5.57 | 0.987 | > 20 | 0.939 | > 5.12
62 | HCC202 (breast, adherent) | 0.972 | > 4 | 0.857 | > 8 | 0.976 | > 20 | 0.736 | 2.02

A lower IC50 marks a more sensitive line; a fit beyond the top or the lowest dose is shown as a bound at that dose. AUC is the area under the same curve over the 256-fold range up to the top dose, as a fraction; it is 1 without any effect and falls as sensitivity rises. For some of these results: The top dose, if marked as inferred, was derived from the fitted curves, not read from the paper. For some of these results: An entry number marks a drug with two screens in the source, which often give different values.
